Data: PubChem BioAssay AID504339 (National Center for Advancing Translational Sciences (NCATS), 2011)
The campaign covered roughly 390,000 compounds. About 17,000 (4.4%) were called active. The inconclusive results got no clear call from the source; some entries with a clear call stand among them for comparison. Calls follow the shape of the dose curve; as a rule, active = well fitted inhibition curve with a large enough effect; inconclusive = small, poorly fitted or top-dose-only effect; inactive = no such curve, though single readings can be large or run the other way. Where the call is inconclusive, the potency comes from a doubtful curve fit.
Also: nearly all actives have a fitted effect of over 50% in size.
Potency is read from the fitted curve at half-maximal effect; tags tell the direction and shape of the fitted curve.

These compounds were tested against Lysine-specific demethylase 4A (Homo sapiens) (UniProt O75164) (assay: qHTS Assay for Inhibitors of JMJD2A-Tudor Domain). Conditions: AlphaScreen JMJD2A-Tudor / H3K4me3 peptide binding; series mostly up to 114 µM.
UniProt O75164, sequence (O75164 whole entry, looked up, the tested form may be a part): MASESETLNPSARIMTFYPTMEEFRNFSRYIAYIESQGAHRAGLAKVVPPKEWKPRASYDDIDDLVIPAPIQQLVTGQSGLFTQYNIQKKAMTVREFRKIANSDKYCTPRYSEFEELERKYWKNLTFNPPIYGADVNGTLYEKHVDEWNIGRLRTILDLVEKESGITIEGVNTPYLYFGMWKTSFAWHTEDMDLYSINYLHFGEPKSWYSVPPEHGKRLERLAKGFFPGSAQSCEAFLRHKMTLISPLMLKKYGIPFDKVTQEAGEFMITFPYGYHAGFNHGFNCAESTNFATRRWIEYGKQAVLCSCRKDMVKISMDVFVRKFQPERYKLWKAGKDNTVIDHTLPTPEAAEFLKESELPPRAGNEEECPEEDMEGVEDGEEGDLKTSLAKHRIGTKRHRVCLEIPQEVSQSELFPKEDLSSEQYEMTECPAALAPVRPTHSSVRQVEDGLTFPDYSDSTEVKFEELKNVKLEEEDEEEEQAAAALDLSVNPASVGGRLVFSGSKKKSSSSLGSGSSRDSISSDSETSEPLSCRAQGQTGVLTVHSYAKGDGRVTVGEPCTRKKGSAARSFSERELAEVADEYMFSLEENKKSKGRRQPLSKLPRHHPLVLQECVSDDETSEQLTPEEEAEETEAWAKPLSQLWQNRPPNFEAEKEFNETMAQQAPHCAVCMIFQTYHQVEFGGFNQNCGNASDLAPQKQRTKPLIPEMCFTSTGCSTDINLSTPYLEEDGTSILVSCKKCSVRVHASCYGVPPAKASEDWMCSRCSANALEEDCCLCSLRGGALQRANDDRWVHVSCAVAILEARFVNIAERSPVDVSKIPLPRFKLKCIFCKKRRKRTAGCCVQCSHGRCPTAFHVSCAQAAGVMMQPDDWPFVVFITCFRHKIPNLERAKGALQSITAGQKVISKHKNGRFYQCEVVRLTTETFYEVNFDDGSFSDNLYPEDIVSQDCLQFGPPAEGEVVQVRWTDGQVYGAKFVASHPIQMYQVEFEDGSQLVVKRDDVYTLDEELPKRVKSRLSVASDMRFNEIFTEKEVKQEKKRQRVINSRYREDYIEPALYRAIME
With O=C(N/N=C/c1c[nH]c2ccccc12)c1cc(-c2cccc3ccccc23)n[nH]1 the Potency was inconclusive: 56.2 µM [inhibitor, partial curve, poor fit]. For O=c1c2ccccc2[nH]c(=S)n1Cc1cccnc1, the Potency was active: 28.2 µM. In the case of COc1ccc(CCNC(=O)Cn2c(C)c3cnn(-c4ccccc4)c(=O)c3c2C)cc1OC, the Potency was “inactive”. For O=C(NC1CCCC1)c1cc2ccccc2o1, the Potency was “inactive”. In the case of C#CCOc1c(/C=C\c2nc(O)c([N+](=O)[O-])c(=O)[nH]2)cc(Br)cc1OC, the Potency was “inactive”. With CCOc1ccc(C(=O)N2CCN(C(=O)c3ccco3)CC2)cc1OCC the Potency was “inactive”. With COc1cccc(C(=O)C2CCCN(C/C=C/c3ccccc3OC)C2)c1 (configuration not stated) the Potency was inconclusive: 50.1 µM [inhibitor, partial curve]. With Cc1nc(-c2ccccc2)sc1-c1n[nH]c(=S)n1C the Potency was active: 10 µM. CC1CCN(C(=O)CSc2nc3c(c(=O)n2C)SCC3)CC1 was tested, and the Potency was “inactive”. For Cc1ccc(S(=O)(=O)OCC(=O)Nc2ccc(C(=O)O)c(O)c2)cc1, the Potency was active: 20 µM. For COc1ccc(CNC(=S)Nc2ccc3nc(N4CCOCC4)cc(C)c3c2)cc1, the Potency was inconclusive: 31.6 µM [inhibitor, single point]. CN1CCN(c2ncc3c(n2)CCN(Cc2ccccc2Cl)C3)CC1 was tested, and the Potency was active: 79.4 µM. In the case of COc1ccc(C2C(C(C)=O)=C(O)C(=O)N2c2cccnc2)cc1OC (configuration not stated), the Potency was active: 79.4 µM. For [O-]/C(=C(\C(=S)Nc1ccc(SC(F)F)cc1)[n+]1ccccc1)c1ccc(Cl)cc1Cl, the Potency was inconclusive: 50.1 µM [inhibitor, partial curve]. In the case of O=[N+]([O-])c1cc(/C=N/n2c(-c3ccncc3)n[nH]c2=S)ccc1Cl, the Potency was inconclusive: 70.8 µM [inhibitor, single point]. With O=c1oc(-c2ccc(O)c(O)c2)cc2cc(O)cc(O)c12 the Potency was inconclusive: 79.4 µM [inhibitor, partial curve]. With O=C(Cc1cccs1)N/N=C/c1ccccn1 the Potency was inconclusive: 20 µM [inhibitor, single point]. In the case of O=C(c1cc2c(s1)CCC2)N1CCN(c2ccccc2)CC1, the Potency was active: 20 µM. COc1ccc(CNC(=O)CN2CCSc3ccccc32)c(OC)c1 was tested, and the Potency was inconclusive: 56.2 µM [inhibitor, partial curve]. With Cn1nnc(NC(=O)c2ccccc2)n1 the Potency was “inactive”. CCCc1cc(=O)[nH]c(SCC(=O)NC)n1 was tested, and the Potency was “inactive”. In the case of COc1ccc(NS(=O)(=O)c2ccc(O)c(NC(=O)c3cc4c(C)nn(-c5ccc(F)cc5)c4s3)c2)cc1, the Potency was inconclusive: 100 µM [inhibitor, partial curve, poor fit]. With CCOC(=O)C1(CC2CCCCO2)CCN(Cc2nccn2-c2cccc(C)c2)CC1 (configuration not stated) the Potency was “inactive”. With CSc1nnc(C)c(/C=C/Nc2ccc(Cl)cc2)n1 the Potency was “inactive”. In the case of CCCCc1c(C)nn(-c2nnc3c4ccccc4n(C)c3n2)c1C, the Potency was inconclusive: 89.1 µM [inhibitor, single point]. In the case of CCCOc1ccc(/C=C/C(=O)Nc2ccc([N+](=O)[O-])cc2)cc1, the Potency was “inactive”. For N#CC1=C2SCN(Cc3ccco3)CN2C(=O)CC1c1c(F)cccc1Cl (configuration not stated), the Potency was active: 14.1 µM. In the case of CN1Cc2c(N3CCOCC3)nc3sc(C(=O)c4ccc(Br)cc4)c(N)c3c2CC1(C)C, the Potency was active: 44.7 µM. COc1ccc(N2CCN(C(CNS(=O)(=O)c3c(C)cc(C)cc3C)c3ccco3)CC2)cc1 (configuration not stated) was tested, and the Potency was active: 22.4 µM. With COC(=O)c1ccc(N=Nc2ccccc2)cc1 the Potency was inconclusive: 44.7 µM [inhibitor, partial curve]. With COc1ccccc1N=C(C)C1=C(O)CC(c2ccccc2)CC1=O (configuration not stated) the Potency was inconclusive: 39.8 µM [inhibitor, single point]. In the case of Cc1ccn2c(Nc3ccc4c(c3)OCO4)c(-c3ccco3)nc2c1, the Potency was inconclusive: 28.2 µM [inhibitor, full curve]. For CC1=C(C(=O)Nc2ccc(Cl)cc2)C(c2ccncc2)C(C#N)=C(SCC(N)=O)N1 (configuration not stated), the Potency was “inactive”. N#Cc1c(C(F)(F)F)cc(-c2cccs2)nc1SCC(=O)Nc1ccc(Cl)cc1 was tested, and the Potency was “inactive”. In the case of COc1ccc(CCN(C)C(=O)C2CCCN(C3CCN(Cc4ccccc4)CC3)C2)cc1OC (configuration not stated), the Potency was active: 7.94 µM. With CCCn1c2ccccc2c2cnn(CC(=O)N(CCCOC(C)C)Cc3ccco3)c(=O)c21 the Potency was inconclusive: 79.4 µM [inhibitor, partial curve]. For COc1cc(Nc2ncnc3onc(-c4ccc(Cl)cc4)c23)cc(OC)c1, the Potency was inconclusive: 79.4 µM [inhibitor, partial curve]. With CCOC(=O)C1=C(Cc2ccc(Cl)cc2)C(=O)c2ccccc2C1=O the Potency was active: 35.5 µM. With CCN(CC)CCN(Cc1cc2ccc(C)cc2[nH]c1=O)C(=S)Nc1ccccc1C(=O)OC the Potency was inconclusive: 89.1 µM [inhibitor, partial curve]. COc1ccc(/C=N/n2c(-c3cc(C)[nH]n3)n[nH]c2=S)cc1OC was tested, and the Potency was active: 3.55 µM. For CN(C(=O)c1nc(-c2ccccc2)n(-c2ccccc2)n1)C1CCS(=O)(=O)C1 (configuration not stated), the Potency was “inactive”. For O=C(CSc1ncnc2ccccc12)c1ccco1, the Potency was inconclusive: 31.6 µM [inhibitor, partial curve]. In the case of CCOc1ccc(C2c3[nH]c4ccccc4c3C[C@H]3C(=O)N(C4CCN(Cc5ccccc5)CC4)CC(=O)N23)cc1OC (some centres not stated), the Potency was inconclusive: 25.1 µM [inhibitor, full curve, poor fit]. With O=C(NCCc1c[nH]c2ccccc12)Nc1ccccc1C(F)(F)F the Potency was inconclusive: 39.8 µM [inhibitor, full curve, poor fit]. COc1cccc2sc(N(CCCN(C)C)C(=O)c3ccc(S(=O)(=O)N4CCCc5ccccc54)cc3)nc12 was tested, and the Potency was inconclusive: 50.1 µM [inhibitor, partial curve]. O=C(CSc1nc2ccccc2[nH]1)c1ccc2c(c1)OCO2 was tested, and the Potency was inconclusive: 56.2 µM [inhibitor, partial curve]. For COc1ccc(N2CC(C(=O)Nc3nnc(SCC(=O)NC4CCCC4)s3)CC2=O)cc1 (configuration not stated), the Potency was inconclusive: 25.1 µM [inhibitor, partial curve].
